Test results taken from the supplement of paper PMC10369915.
The other results are listed elsewhere or left out. No stated cut-off is given here; in the data, active = 3.2 or more and inactive = the rest. The signal is at background level for most entries.

How the values were obtained:
Assay in all cases: enrichment score (SH2-bound / input frequency) (ratio); bacterial display of known human phosphotyrosine sites (pTyr-Var adds point mutants) read by sequencing; higher = stronger binding; tyrosines were phosphorylated by kinases first
Settings in all cases: peptide library: Human pTyr
SHP2 C-SH2 domain E139D = molecular target: SHP2 C-SH2 domain E139D
[1] = molecular target: SHP2 C-SH2 domain wild-type
SHP2 N-SH2 domain L43F = molecular target: SHP2 N-SH2 domain L43F
SHP2 N-SH2 domain T42A = molecular target: SHP2 N-SH2 domain T42A
SHP2 N-SH2 domain T52S = molecular target: SHP2 N-SH2 domain T52S
[2] = molecular target: SHP2 N-SH2 domain wild-type

Measured: enrichment score
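Further: displayed peptides selected on beads carrying the immobilized SH2 domain, with library peptides lacking any tyrosine serving as negative controls.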

SSEKGGNYPVQHVGG [POL_HV2RO_135]
inactive: SHP2 C-SH2 domain E139D 0.76 | [1] 0.677 | SHP2 N-SH2 domain L43F 0.722 | SHP2 N-SH2 domain T42A 0.634 | SHP2 N-SH2 domain T52S 0.659 | [2] 0.704

SNQVSQNYPIVQNAQ [POL_HV1SE_132]
inactive: SHP2 C-SH2 domain E139D 0.743 | [1] 0.619 | SHP2 N-SH2 domain L43F 0.766 | SHP2 N-SH2 domain T42A 0.759 | SHP2 N-SH2 domain T52S 0.756 | [2] 0.604

SNQVSQNYPIVQNIQ [POL_HV1H2_132]
inactive: SHP2 C-SH2 domain E139D 0.637 | [1] 0.624 | SHP2 N-SH2 domain L43F 0.744 | SHP2 N-SH2 domain T42A 0.654 | SHP2 N-SH2 domain T52S 0.783 | [2] 0.641

GSQVSQNYPIVQNLQ [POL_HV1RH_132]
inactive: SHP2 C-SH2 domain E139D 0.671 | [1] 0.644 | SHP2 N-SH2 domain L43F 0.696 | SHP2 N-SH2 domain T42A 0.614 | SHP2 N-SH2 domain T52S 0.645 | [2] 0.708

KIEESLHYAFRHGYV [SHUT_ADE41_334]
inactive: SHP2 C-SH2 domain E139D 1.69 | [1] 1.43 | SHP2 N-SH2 domain L43F 1.6 | SHP2 N-SH2 domain T42A 1.36 | SHP2 N-SH2 domain T52S 1.69 | [2] 2.04

KVEESLHYAFRHGAV [SHUT_ADE40_332_YA]
inactive: SHP2 C-SH2 domain E139D 1.33 | [1] 1.35 | SHP2 N-SH2 domain L43F 0.887 | SHP2 N-SH2 domain T42A 0.911 | SHP2 N-SH2 domain T52S 0.995 | [2] 1.07

KIEECLHYTFRHGYV [SHUT_ADE12_349]
inactive: SHP2 C-SH2 domain E139D 1.88 | [1] 1.62 | SHP2 N-SH2 domain L43F 1.29 | SHP2 N-SH2 domain T42A 1.44 | SHP2 N-SH2 domain T52S 1.34 | [2] 1.6

KVEESLHYAFRHGYV [SHUT_ADE40_332]
inactive: SHP2 C-SH2 domain E139D 1.45 | [1] 1.45 | SHP2 N-SH2 domain L43F 1.27 | SHP2 N-SH2 domain T42A 1.24 | SHP2 N-SH2 domain T52S 1.33 | [2] 1.35

DSKISQNYPIVQNAQ [POL_HV1V9_134]
inactive: SHP2 C-SH2 domain E139D 0.695 | [1] 0.666 | SHP2 N-SH2 domain L43F 0.777 | SHP2 N-SH2 domain T42A 0.648 | SHP2 N-SH2 domain T52S 0.738 | [2] 0.784

SSKVSQNYPIVQNIQ [POL_HV1J3_132]
inactive: SHP2 C-SH2 domain E139D 0.941 | [1] 0.745 | SHP2 N-SH2 domain L43F 0.716 | SHP2 N-SH2 domain T42A 0.794 | SHP2 N-SH2 domain T52S 0.988 | [2] 1.02

SSSVSQNYPIVQNAQ [POL_HV1MA_138]
inactive: SHP2 C-SH2 domain E139D 0.609 | [1] 0.611 | SHP2 N-SH2 domain L43F 0.728 | SHP2 N-SH2 domain T42A 0.675 | SHP2 N-SH2 domain T52S 0.604 | [2] 0.624

NSQVSQNYPIVQNLQ [POL_HV1Z2_133]
inactive: SHP2 C-SH2 domain E139D 0.708 | [1] 0.597 | SHP2 N-SH2 domain L43F 0.753 | SHP2 N-SH2 domain T42A 0.633 | SHP2 N-SH2 domain T52S 0.826 | [2] 0.608

KIEECLHYTFRHGAV [SHUT_ADE12_349_YA]
inactive: SHP2 C-SH2 domain E139D 1.42 | [1] 1.27 | SHP2 N-SH2 domain L43F 1.26 | SHP2 N-SH2 domain T42A 1.52 | SHP2 N-SH2 domain T52S 1.27 | [2] 1.57

DKGVSQNYPIVQNLQ [POL_HV1VI_128]
inactive: SHP2 C-SH2 domain E139D 0.848 | [1] 0.555 | SHP2 N-SH2 domain L43F 0.707 | SHP2 N-SH2 domain T42A 0.623 | SHP2 N-SH2 domain T52S 0.734 | [2] 0.699

DKEVSQNYPIVQNIQ [POL_HV1MP_128]
inactive: SHP2 C-SH2 domain E139D 0.578 | [1] 0.739 | SHP2 N-SH2 domain L43F 0.612 | SHP2 N-SH2 domain T42A 0.607 | SHP2 N-SH2 domain T52S 0.744 | [2] 0.802

DNKVSQNYPIVQNAQ [POL_HV190_132]
inactive: SHP2 C-SH2 domain E139D 0.777 | [1] 0.649 | SHP2 N-SH2 domain L43F 0.813 | SHP2 N-SH2 domain T42A 0.625 | SHP2 N-SH2 domain T52S 0.914 | [2] 0.744

DSSISRNYPLVQNAQ [POL_HV1YB_134]
inactive: SHP2 C-SH2 domain E139D 0.594 | [1] 0.503 | SHP2 N-SH2 domain L43F 0.815 | SHP2 N-SH2 domain T42A 0.686 | SHP2 N-SH2 domain T52S 0.878 | [2] 0.668

KLEETLHYTFRQGAV [SHUT_ADE02_365_YA]
inactive: SHP2 C-SH2 domain E139D 1.24 | [1] 1.21 | SHP2 N-SH2 domain L43F 1.16 | SHP2 N-SH2 domain T42A 1.05 | SHP2 N-SH2 domain T52S 1.1 | [2] 1.14

SSQVSQNYPIVQNIE [POL_HV1MN_135]
inactive: SHP2 C-SH2 domain E139D 0.738 | [1] 0.613 | SHP2 N-SH2 domain L43F 0.627 | SHP2 N-SH2 domain T42A 0.575 | SHP2 N-SH2 domain T52S 0.668 | [2] 0.613

SKGVSQNYPILQNLQ [POL_HV1M2_132]
inactive: SHP2 C-SH2 domain E139D 0.753 | [1] 0.518 | SHP2 N-SH2 domain L43F 0.585 | SHP2 N-SH2 domain T42A 0.505 | SHP2 N-SH2 domain T52S 0.573 | [2] 0.697

KGKVSQNYPIVQNLQ [POL_HV192_130]
inactive: SHP2 C-SH2 domain E139D 1.16 | [1] 1.07 | SHP2 N-SH2 domain L43F 1.01 | SHP2 N-SH2 domain T42A 0.89 | SHP2 N-SH2 domain T52S 1.02 | [2] 1.25

AWTLDLHYIRQCVNQ [ICP22_HHV2H_189]
inactive: SHP2 C-SH2 domain E139D 1.74 | [1] 1.27 | SHP2 N-SH2 domain L43F 1.48 | SHP2 N-SH2 domain T42A 1.68 | SHP2 N-SH2 domain T52S 2.13 | [2] 1.92

SNPVSQNYPIVQNAQ [POL_HV19N_131]
inactive: SHP2 C-SH2 domain E139D 0.832 | [1] 0.646 | SHP2 N-SH2 domain L43F 0.771 | SHP2 N-SH2 domain T42A 0.67 | SHP2 N-SH2 domain T52S 0.716 | [2] 0.758

DCNEQTIYQNTTVIN [A36_VAR67_132]
inactive: SHP2 C-SH2 domain E139D 1.04 | [1] 0.897 | SHP2 N-SH2 domain L43F 0.854 | SHP2 N-SH2 domain T42A 0.878 | SHP2 N-SH2 domain T52S 0.978 | [2] 1.05

SSQVSQNYPIVQNLQ [POL_HV1Y2_132]
inactive: SHP2 C-SH2 domain E139D 0.688 | [1] 0.675 | SHP2 N-SH2 domain L43F 0.71 | SHP2 N-SH2 domain T42A 0.646 | SHP2 N-SH2 domain T52S 0.57 | [2] 0.68

NTGSSQNYPIVQNAQ [POL_HV1U4_128]
inactive: SHP2 C-SH2 domain E139D 0.599 | [1] 0.714 | SHP2 N-SH2 domain L43F 0.685 | SHP2 N-SH2 domain T42A 0.814 | SHP2 N-SH2 domain T52S 0.678 | [2] 0.733

DSNISRNYPLVQTAQ [POL_HV1YF_134]
inactive: SHP2 C-SH2 domain E139D 0.585 | [1] 0.577 | SHP2 N-SH2 domain L43F 0.456 | SHP2 N-SH2 domain T42A 0.606 | SHP2 N-SH2 domain T52S 0.677 | [2] 0.662

KPTSRLAYPVQQIAG [POL_HV2EH_130]
inactive: SHP2 C-SH2 domain E139D 1.77 | [1] 1.68 | SHP2 N-SH2 domain L43F 1.4 | SHP2 N-SH2 domain T42A 1.93 | SHP2 N-SH2 domain T52S 2.02 | [2] 2.41

DDSSQHIYEEAGRGS [LMP2_EBVA8_112]
inactive: SHP2 C-SH2 domain E139D 0.721 | [1] 0.491 | SHP2 N-SH2 domain L43F 0.815 | SHP2 N-SH2 domain T42A 0.663 | SHP2 N-SH2 domain T52S 0.551 | [2] 0.494

ARQAGQNYPIVSNAQ [POL_HV1AN_130]
inactive: SHP2 C-SH2 domain E139D 0.53 | [1] 0.75 | SHP2 N-SH2 domain L43F 0.433 | SHP2 N-SH2 domain T42A 0.81 | SHP2 N-SH2 domain T52S 0.675 | [2] 0.543

APPSGGNYPVQQLAG [POL_HV2D2_130]
inactive: SHP2 C-SH2 domain E139D 0.731 | [1] 0.495 | SHP2 N-SH2 domain L43F 0.616 | SHP2 N-SH2 domain T42A 0.533 | SHP2 N-SH2 domain T52S 0.555 | [2] 0.538

APPSGGNYPVQQIAG [POL_HV2UC_130]
inactive: SHP2 C-SH2 domain E139D 0.598 | [1] 0.501 | SHP2 N-SH2 domain L43F 0.591 | SHP2 N-SH2 domain T42A 0.738 | SHP2 N-SH2 domain T52S 0.692 | [2] 0.608

APSTEHIYDSVAGST [A36_VAR67_112]
inactive: SHP2 C-SH2 domain E139D 0.581 | [1] 0.529 | SHP2 N-SH2 domain L43F 0.667 | SHP2 N-SH2 domain T42A 0.459 | SHP2 N-SH2 domain T52S 0.558 | [2] 0.595

KLEETLHYTFRQGYV [SHUT_ADE02_365]
inactive: SHP2 C-SH2 domain E139D 1.53 | [1] 1.8 | SHP2 N-SH2 domain L43F 1.21 | SHP2 N-SH2 domain T42A 1.45 | SHP2 N-SH2 domain T52S 1.73 | [2] 1.83

SSQVSQNYPIVQNIQ [POL_HV1LW_132]
inactive: SHP2 C-SH2 domain E139D 0.757 | [1] 0.607 | SHP2 N-SH2 domain L43F 0.715 | SHP2 N-SH2 domain T42A 0.738 | SHP2 N-SH2 domain T52S 0.797 | [2] 0.636

EKGVSQNYPIVQNLQ [POL_HV193_128]
inactive: SHP2 C-SH2 domain E139D 0.704 | [1] 0.599 | SHP2 N-SH2 domain L43F 0.767 | SHP2 N-SH2 domain T42A 0.618 | SHP2 N-SH2 domain T52S 0.804 | [2] 0.585
